Measurements taken from the supplement of paper PMC3334620.
The full ranking holds about 33,000 sequences; the median of “E-score (-0.5 to 0.5)” is about -0.054, and the highest 2% start at about 0.35. The list shows a part of the results.

These sequences were tested against T1, Stb5 (UniProt P38699) (assay: PBM E-score (8-mer binding enrichment) (E-score (-0.5 to 0.5)); higher = stronger / more preferred TF binding; most listed sequences are background and not binding sites). Settings: protein concentration: 200 nM; construct: GST-full length.
T1 sequence: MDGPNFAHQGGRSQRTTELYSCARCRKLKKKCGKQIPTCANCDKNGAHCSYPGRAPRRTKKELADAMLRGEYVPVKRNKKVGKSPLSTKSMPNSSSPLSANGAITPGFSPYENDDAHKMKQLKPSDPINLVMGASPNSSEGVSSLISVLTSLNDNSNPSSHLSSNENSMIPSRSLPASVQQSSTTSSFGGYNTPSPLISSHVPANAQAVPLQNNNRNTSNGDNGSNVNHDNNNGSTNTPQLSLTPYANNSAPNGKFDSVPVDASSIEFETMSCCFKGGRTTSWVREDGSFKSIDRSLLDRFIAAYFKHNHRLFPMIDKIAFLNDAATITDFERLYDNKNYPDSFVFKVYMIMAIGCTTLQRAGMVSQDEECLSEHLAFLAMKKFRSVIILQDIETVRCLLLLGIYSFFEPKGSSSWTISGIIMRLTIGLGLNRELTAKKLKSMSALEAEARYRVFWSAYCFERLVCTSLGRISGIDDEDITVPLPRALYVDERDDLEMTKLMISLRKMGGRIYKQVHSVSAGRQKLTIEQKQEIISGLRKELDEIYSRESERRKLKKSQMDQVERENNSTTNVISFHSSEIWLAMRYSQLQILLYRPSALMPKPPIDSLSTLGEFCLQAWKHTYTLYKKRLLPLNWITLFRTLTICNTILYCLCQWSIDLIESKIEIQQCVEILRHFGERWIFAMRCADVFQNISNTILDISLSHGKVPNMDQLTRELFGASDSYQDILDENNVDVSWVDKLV
Summary of the method: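 Yeast transcription factors carrying a GST tag, as full-length proteins or DNA-binding domains, were produced by PURExpress in vitro transcription/translation. About 100-200 nM protein was applied to universal all-10-mer Agilent arrays, double-stranded by primer extension on fresh or once-stripped slides. Bound protein was detected with fluorescent anti-GST, and scans were normalised with masliner. The Universal PBM Analysis Suite gave each ungapped eight-base word, pooled with its reverse complement, an E-score, a modified Wilcoxon-Mann-Whitney statistic.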

First: AAACAATA
Second: CTGTAAGC
The “PBM E-score” value of the first is higher: 0.0798 for the first, -0.131 for the second.

First: CTGTGGAA
Second: CAAGATCG
The “PBM E-score” value of the first is lower: -0.104 for the first, -0.018 for the second.

Going from GGTGCATA to GCTAATCC, the “PBM E-score” value rises from 0.0547 to 0.145.

First: CACTGGGC
Second: ATGTAATA
The “PBM E-score” value of the first is lower: -0.0629 for the first, 0.099 for the second.

Compared with GCGGACCA, TTGAGAAA is lower in “PBM E-score” value: 0.293 for the first, 0.0733 for the second.

Compared with CTTGAACA, CAAGAGCC is higher in “PBM E-score” value: -0.0254 for the first, 0.109 for the second.

Going from AACGTCGC to AAGCCGGA, the “PBM E-score” value rises from -0.101 to 0.299.

Compared with AATCCGGT, CGATGGCG is lower in “PBM E-score” value: 0.321 for the first, 0.129 for the second.

Compared with CAGGGGAC, ACCTCCCG is higher in “PBM E-score” value: -0.0333 for the first, 0.0591 for the second.

Going from TATCTGCA to AAATTCTT, the “PBM E-score” value rises from -0.21 to -0.172.

First: TACAAGGA
Second: GGCTCCTA
The “PBM E-score” value of the first is lower: -0.119 for the first, -0.106 for the second.

Compared with CTTCACCC, GTCACGCA is lower in “PBM E-score” value: 0.0526 for the first, -0.165 for the second.

First: ACCACCGG
Second: CACCACTC
The “PBM E-score” value of the first is higher: 0.406 for the first, -0.0301 for the second.

Compared with ACTCACTC, CAGCAAGC is lower in “PBM E-score” value: -0.139 for the first, -0.34 for the second.

Compared with AATTGAAC, GAGCCCCA is lower in “PBM E-score” value: -0.00222 for the first, -0.0804 for the second.

Compared with AGCGGCAA, ACTATAGA is lower in “PBM E-score” value: 0.2 for the first, -0.0232 for the second.

First: CCATACAG
Second: ACCCCTGG
The “PBM E-score” value of the first is lower: -0.233 for the first, -0.15 for the second.

First: AGCGCGCA
Second: AATCCCTC
The “PBM E-score” value of the first is higher: 0.189 for the first, -0.179 for the second.

Compared with CGAGCTTC, CATTTGCA is higher in “PBM E-score” value: -0.0936 for the first, -0.0538 for the second.

First: AAGTTGAA
Second: CCATACTC
The “PBM E-score” value of the first is lower: -0.167 for the first, -0.0212 for the second.

Going from ATGTCTCG to AGAACCTA, the “PBM E-score” value falls from -0.136 to -0.159.

Going from GCCTATGA to ACCATCTA, the “PBM E-score” value rises from -0.0859 to 0.024.

Compared with AGTTCAAG, GATGGATA is higher in “PBM E-score” value: -0.0241 for the first, 0.00277 for the second.

Compared with TAAGGCGA, ACCTTACT is higher in “PBM E-score” value: -0.135 for the first, 0.0504 for the second.

Going from AACAGAGT to GTACGTAA, the “PBM E-score” value falls from -0.132 to -0.199.

First: AATGCGAA
Second: CCCAAGAA
The “PBM E-score” value of the first is higher: -0.0639 for the first, -0.137 for the second.

Going from GTTATAAC to ATAACTCG, the “PBM E-score” value falls from 0.273 to 0.0637.

Compared with AATCCAAT, GCCATAAA is higher in “PBM E-score” value: -0.214 for the first, 0.148 for the second.

First: GGTAAACC
Second: GAGTACCA
The “PBM E-score” value of the first is higher: 0.0169 for the first, -0.0731 for the second.

Compared with TATCGTGA, AAACACCT is higher in “PBM E-score” value: -0.0961 for the first, 0.162 for the second.

First: AGGTGTAC
Second: AGTTCCAT
The “PBM E-score” value of the first is lower: -0.141 for the first, -0.138 for the second.

Compared with ACGCCCAC, GGACTACC is higher in “PBM E-score” value: -0.117 for the first, 0.0946 for the second.

Going from AAGATGTG to TTAGACAA, the “PBM E-score” value rises from -0.189 to -0.142.

First: GGCGTCTA
Second: GGTTGTGA
The “PBM E-score” value of the first is higher: 0.0656 for the first, -0.141 for the second.

Compared with ATGACCTG, AAGAAAAA is lower in “PBM E-score” value: 0.00256 for the first, -0.183 for the second.

First: GCGCTGAA
Second: CCTCAATA
The “PBM E-score” value of the first is higher: -0.06 for the first, -0.201 for the second.

Compared with TCCAAAGA, CTACTGAG is lower in “PBM E-score” value: -0.092 for the first, -0.121 for the second.

First: ATTACTGA
Second: ACGCACCG
The “PBM E-score” value of the first is lower: -0.125 for the first, 0.312 for the second.

First: CGTTGCGA
Second: GACGCAAA
The “PBM E-score” value of the first is higher: -0.0103 for the first, -0.0121 for the second.

Going from GCTGACTA to ACTATGCA, the “PBM E-score” value falls from -0.118 to -0.236.

Going from TAGCTTAA to GAAGCGCC, the “PBM E-score” value rises from -0.134 to 0.13.

Going from TAATATAA to CTGATCGC, the “PBM E-score” value falls from 0.133 to -0.177.

Compared with AATGAGTG, ATGCGGTC is higher in “PBM E-score” value: -0.0296 for the first, 0.142 for the second.

Compared with CCCGCCCC, ATCACTAA is lower in “PBM E-score” value: 0.361 for the first, -0.0183 for the second.

Going from CCATGCGA to AAGAATCC, the “PBM E-score” value rises from -0.115 to -0.0879.

Going from CCTGCTAG to AAGGATGC, the “PBM E-score” value falls from -0.0487 to -0.244.

First: AGGCATTC
Second: ACATCTCG
The “PBM E-score” value of the first is higher: -0.138 for the first, -0.145 for the second.

First: AATTCATA
Second: CCAGTTAA
The “PBM E-score” value of the first is higher: -0.0803 for the first, -0.125 for the second.

First: CCATAGAC
Second: GTTATCCA
The “PBM E-score” value of the first is lower: -0.194 for the first, -0.00256 for the second.

Compared with AACGTAGG, AACACGTA is higher in “PBM E-score” value: -0.138 for the first, -0.0511 for the second.

Going from GACCGTCC to CAAAGCTC, the “PBM E-score” value falls from 0.21 to 0.0303.

First: CCAAACAG
Second: GAGTAGAC
The “PBM E-score” value of the first is lower: -0.253 for the first, -0.0296 for the second.

Going from GAGCGCTA to AGTGACAT, the “PBM E-score” value falls from -0.106 to -0.133.

First: GCCAGGAA
Second: ACAGCAGG
The “PBM E-score” value of the first is lower: -0.223 for the first, 0.0772 for the second.

Going from CATGGAAA to AATCATCA, the “PBM E-score” value falls from -0.0504 to -0.281.

Going from CCACGCGG to CCCATTAA, the “PBM E-score” value falls from 0.177 to -0.226.

Compared with GAGTGGGA, GCTATTTA is higher in “PBM E-score” value: -0.18 for the first, 0.11 for the second.

Going from GAAGCATA to ATGACGGA, the “PBM E-score” value rises from -0.119 to 0.151.

First: ACGCACTG
Second: AAAAGACA
The “PBM E-score” value of the first is lower: -0.108 for the first, 0.0459 for the second.

Compared with CTGTTTAC, ACTCTGCC is lower in “PBM E-score” value: -0.144 for the first, -0.305 for the second.

Going from ACCGAGAA to CTCCTAAC, the “PBM E-score” value falls from 0.116 to -0.2.

Compared with ATGCGTAC, TCACAAGA is lower in “PBM E-score” value: -0.0435 for the first, -0.114 for the second.

First: CGCCGAAC
Second: GTTTGCGA
The “PBM E-score” value of the first is higher: 0.315 for the first, 0.0258 for the second.

First: CGCAGCCA
Second: ATAGCCAT
The “PBM E-score” value of the first is higher: -0.00206 for the first, -0.301 for the second.

Going from AGTTGGGA to GAGTGAGA, the “PBM E-score” value rises from -0.221 to -0.0634.

Compared with ATAGCTCG, CTACCAGA is higher in “PBM E-score” value: -0.0247 for the first, 0.0781 for the second.

Going from ACGACACA to CGCGTTCC, the “PBM E-score” value rises from -0.188 to 0.0249.

Going from ATTCGACC to TGTAATAA, the “PBM E-score” value rises from -0.061 to 0.0975.

Compared with CTGATGAA, AACCTGTC is higher in “PBM E-score” value: -0.227 for the first, -0.173 for the second.

First: AGATTCCT
Second: GCCTATAC
The “PBM E-score” value of the first is lower: -0.202 for the first, -0.0694 for the second.

Going from GCATCTGA to CAGCGAGG, the “PBM E-score” value falls from -0.101 to -0.146.

Going from AAACGATT to CAAGTAAG, the “PBM E-score” value rises from -0.224 to -0.11.

Going from ACGAACCA to CCATTTGC, the “PBM E-score” value falls from -0.0187 to -0.031.

First: CGGCAGAA
Second: GGTCACGA
The “PBM E-score” value of the first is higher: 0.185 for the first, -0.178 for the second.

Compared with TGGAACCA, CAAGGTGA is lower in “PBM E-score” value: -0.0381 for the first, -0.178 for the second.

Compared with ATAACCGA, GCAGTGCC is lower in “PBM E-score” value: 0.229 for the first, -0.0347 for the second.

Going from ATATGTCA to AAATTAAT, the “PBM E-score” value rises from -0.104 to 0.0649.

Going from TGACGCCA to GCCTTAGA, the “PBM E-score” value rises from -0.0732 to 0.064.

Compared with CCTACACC, CATATGGA is lower in “PBM E-score” value: 0.131 for the first, -0.151 for the second.

First: CGCCTATA
Second: GAGCCGAC
The “PBM E-score” value of the first is higher: 0.215 for the first, 0.201 for the second.

Compared with ATTGCCCA, CTGAGAAG is higher in “PBM E-score” value: -0.198 for the first, -0.16 for the second.

First: ACTAACCC
Second: GACGGAGA
The “PBM E-score” value of the first is lower: -0.0396 for the first, 0.279 for the second.

Going from AGTCATCG to TCGTGTAA, the “PBM E-score” value rises from -0.208 to 0.0758.

Compared with GACATAGA, TACCGCCA is higher in “PBM E-score” value: -0.00934 for the first, 0.323 for the second.

First: CTCAAAAG
Second: CGTATGCC
The “PBM E-score” value of the first is lower: 0.0069 for the first, 0.07 for the second.

Compared with TCCATTAA, GCGCCAGA is higher in “PBM E-score” value: 0.109 for the first, 0.135 for the second.
